# According to paper PMC7819943, “Rice protein-binding microarrays: a tool to detect cis-acting elements near promoter regions in rice”:
# This is one part of the list.
# Molecular target: T1, OsWOX13 (Oryza sativa, UniProt Q5QMM3 1-267)
# T1 sequence: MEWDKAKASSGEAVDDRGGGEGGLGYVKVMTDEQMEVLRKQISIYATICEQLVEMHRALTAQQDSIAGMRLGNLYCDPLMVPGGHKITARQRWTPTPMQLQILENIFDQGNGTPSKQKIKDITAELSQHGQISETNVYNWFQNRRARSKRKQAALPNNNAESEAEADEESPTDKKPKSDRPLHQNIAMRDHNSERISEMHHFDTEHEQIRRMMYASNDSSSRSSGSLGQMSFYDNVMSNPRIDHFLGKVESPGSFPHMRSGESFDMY
# Experiment: protein-binding microarray (RPBM); PBS, 2% BSA, 51.3 ng/ul salmon testes DNA, 50 uM zinc acetate, 200 nM TF, 25 C, 1 h; high values mean tight binding
# Conditions: protein: recombinant; tags: N-terminal polyhistidine and DsRed monomer fusion (pET32a); label: CyDye5-dUTP incorporated in the synthesized complementary strand; 3' TTTTT single-stranded linker to array surface; dsDNA, one strand shown
# How it was run: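 Per-feature fluorescence intensity (arbitrary units), read on an Axon 4000B scanner, is the binding signal. Transcription factors carrying an N-terminal polyhistidine tag and DsRed fusion were expressed in E. coli BL21-CodonPlus and purified on Ni–NTA. A custom Agilent array, made double-stranded by primer extension with Cy5-dUTP and blocked with 2% BSA, was incubated with 200 nM protein in PBS, 2% BSA, salmon testes DNA and 50 µM zinc acetate at 25 °C for 1 h and then washed.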
row,Sequence,binding signal
1,ACATGATGGACCAAATGCTCTGGAACAACCTGATTCAGAGCGGAGTCACCTAGTGCAG,6770 fluorescence intensity (a.u.)
2,TGACTGATTGGACCCACCCGTCAGCGTGATTACGAGGACGCGGAGTCACCTAGTGCAG,45400 fluorescence intensity (a.u.)
3,TTCAATCCCAAATTATATGTACACAATTGTGCGGGTTGTTCGGAGTCACCTAGTGCAG,3280 fluorescence intensity (a.u.)
4,GGCCAGTGATTATTTTATTAGACGGGTATATCTTCTAGCCCGGAGTCACCTAGTGCAG,26200 fluorescence intensity (a.u.)
5,ACTCGATTGATGTTGTCCTCGCCATGAAGCAACCACGACCCGGAGTCACCTAGTGCAG,23900 fluorescence intensity (a.u.)
6,TCATTAATTTTCTATCAAATCTTGAAGTTGCAATTTGCAACGGAGTCACCTAGTGCAG,11200 fluorescence intensity (a.u.)
7,AAGCAAATCGCCAATTAAGAGCTCCAATACCATAGCTTCTCGGAGTCACCTAGTGCAG,3990 fluorescence intensity (a.u.)
8,CAATAATTTGGCTCATGCTTCTCCTTCTCCTGCATGCTGCCGGAGTCACCTAGTGCAG,9460 fluorescence intensity (a.u.)
9,TAGATTGGCTATAGATGAATTGGAGCTAGTAGTTGGCTATCGGAGTCACCTAGTGCAG,25400 fluorescence intensity (a.u.)
10,GACATTAATTGGATGGACACATGCTAACCAACTAAAATACCGGAGTCACCTAGTGCAG,13300 fluorescence intensity (a.u.)
11,TTTGATGGGAACTTAATGCAGCCTTGGTTTTCTCTGCCAACGGAGTCACCTAGTGCAG,23200 fluorescence intensity (a.u.)
12,TGAGGATTCTCCAGATTGATTGGTACACAAAGACAGACAACGGAGTCACCTAGTGCAG,22700 fluorescence intensity (a.u.)
13,ACGTGCATCGAGATTGCTTGTGATGATCATTTCAATAATGCGGAGTCACCTAGTGCAG,3290 fluorescence intensity (a.u.)
14,GATTCAATTAATCAGGTTAGGTACATGATTGTTTCCCCTGCGGAGTCACCTAGTGCAG,37300 fluorescence intensity (a.u.)
15,CAGCAGCATTAATTTGTTGATGATCGTTGCGGTGCCTTTACGGAGTCACCTAGTGCAG,7350 fluorescence intensity (a.u.)
16,AGAACACAATCCACTAATTAGTCGAATCCAGAGCTATTAACGGAGTCACCTAGTGCAG,6260 fluorescence intensity (a.u.)
17,ACCTCCCTTTAATTGCTGTATTTTATTCCCTAATCTCACTCGGAGTCACCTAGTGCAG,7650 fluorescence intensity (a.u.)
18,TTTAAAATTAATACTTAAATTAATTATGTGCTAATGAACCCGGAGTCACCTAGTGCAG,23900 fluorescence intensity (a.u.)
19,GATTATCTATTTATAAATTTAATATTTTGACAAATACATTCGGAGTCACCTAGTGCAG,7580 fluorescence intensity (a.u.)
20,GTTAATTACTTGCCACAAAACCGGGCTTAACAGAATACAGCGGAGTCACCTAGTGCAG,15900 fluorescence intensity (a.u.)
21,AAACTAATTACTACTACTAGCACCACACATTAACATCCACCGGAGTCACCTAGTGCAG,13800 fluorescence intensity (a.u.)

row,Sequence,binding signal
1,GTGAATGTGATTTGTTGCTTTGATATTTTCATGTAACAATCGGAGTCACCTAGTGCAG,17500 fluorescence intensity (a.u.)
2,GGAAACCAGCCTTAACATGATTAAATTCCAATCATTATTACGGAGTCACCTAGTGCAG,4670 fluorescence intensity (a.u.)
3,GATAATTTGTCAGAAAATTCCGGGAATTTTGAATAGGACTCGGAGTCACCTAGTGCAG,17300 fluorescence intensity (a.u.)
4,ATCCTATGATTACTACACGATAACTAATGAGAAACTACTACGGAGTCACCTAGTGCAG,6780 fluorescence intensity (a.u.)
5,TACTACTAATTATATGCCGATTGAGAGTGTTGTAGCGTCACGGAGTCACCTAGTGCAG,17700 fluorescence intensity (a.u.)
6,CAACTAAACTCCCTATCAATTTCCATCACCTCTACCAAACCGGAGTCACCTAGTGCAG,5360 fluorescence intensity (a.u.)
7,TGCCTAGCTAATTCGCGTCATTCATCTCCTCCTCCTTATACGGAGTCACCTAGTGCAG,3760 fluorescence intensity (a.u.)
8,CGTAAAATATTAATCATATTTTATCTTCTAACAACAATGACGGAGTCACCTAGTGCAG,5570 fluorescence intensity (a.u.)
9,GCGAGCCGTGTGATTGCCTGCTCCTCCTCCGATCCTGTGTCGGAGTCACCTAGTGCAG,9380 fluorescence intensity (a.u.)
10,TGTGCTTAACCGCGAAATTTAGTCAATTGTTAAAGAATGGCGGAGTCACCTAGTGCAG,3790 fluorescence intensity (a.u.)
11,TAATTTAATTTAATTACCTCCCTAATCACTCTCGCTCGCTCGGAGTCACCTAGTGCAG,46200 fluorescence intensity (a.u.)
12,GAATTCAATTTCTAGATTTGACACTATGCTCGCTTCGCGTCGGAGTCACCTAGTGCAG,3640 fluorescence intensity (a.u.)
13,AAAACAAAATTGGAAAGAATTTTGTTGGAAACCAATGGCTCGGAGTCACCTAGTGCAG,5540 fluorescence intensity (a.u.)
14,ACTAATTAATGGGTGTTTCATTACGACAACGGCGGCGGCCCGGAGTCACCTAGTGCAG,26200 fluorescence intensity (a.u.)
15,GGATTATTTCGTGATTGTAGGAACCTGCAGAGCACCTTCCCGGAGTCACCTAGTGCAG,5170 fluorescence intensity (a.u.)
16,CTTTGTCTTTGTTTCTTGTTGATTGCAGGATCAAATCAACCGGAGTCACCTAGTGCAG,5330 fluorescence intensity (a.u.)
17,ATTACAAAGTTAGTTAATTTATCATTTCTGCTAGTCAACACGGAGTCACCTAGTGCAG,3710 fluorescence intensity (a.u.)
18,AAAATTGATCAATTTGGGTCAAGATCGAATAAGTGAAGCCCGGAGTCACCTAGTGCAG,43500 fluorescence intensity (a.u.)
19,TATCACCTTAATTAATTATTGGAAGTAGAAGCGATAGGGTCGGAGTCACCTAGTGCAG,19900 fluorescence intensity (a.u.)
20,AGTGACAATCACGTCTTCATAGTTGTGTCATCTTATGGAGCGGAGTCACCTAGTGCAG,8490 fluorescence intensity (a.u.)
21,TTAGATAATGGAATATACACGGATGCTCTTGTGTTCTTGTCGGAGTCACCTAGTGCAG,7550 fluorescence intensity (a.u.)
